This note sets out measurements from the RNAGym collection of RNA variant scans (doi:10.1101/gad.245936.114).

B1: tRNA (parent)
chain: CUCUCGGUAGCCAAGUUGGUUUAAGGCGCAAGACUUUAAUUUAUCACUACGAAAUCUUGAGAUCGGGCGUUCGACUCGCCCCCGGGAGAUUUUUUCCUCGAGCAA

This sample is rich in variants without activity.

In the series the parent is B1. The series is described as follows: nonsense suppression (GFP-seq) (ratio to wild type); higher = more function; SUP4oc tRNA, yeast GFP reporter sort-seq. The procedure, abridged: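 To measure nonsense suppression, tRNA variants from a library carrying ~3% random mutations were integrated into the yeast genome alongside RFP and a GFP ochre reporter under galactose control. Growth took place in raffinose/galactose medium supplemented with 80 mg/L adenine, followed by sorting into GFP/RFP bins and Illumina sequencing of each bin (phred ≥30). For each variant with ≥100 reads and ≥30 cells, the bin median GFP/RFP values were weighted by its estimated cell share per bin and referenced to the unmutated parent tRNA.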
For the variant U22A G66A G69U, the nonsense suppression was no more than 0.026.

With U22G C29G, the nonsense suppression was no more than 0.026. In the case of U2G G26A G59A G61U it was no more than 0.026; in that of U16C U76A A89U, no more than 0.026; in that of C1U U17C G69C U76C G86C, no more than 0.026. The figure for G6U A60G G61A G65C is no more than 0.026; for C1U A14G G15U U20G G25U it is no more than 0.026; for U2A G78U it is no more than 0.026. In the case of C1U C12G it was 0.327; in that of U16A A60G, 0.247; in that of U58G G61A G69A, no more than 0.026. G61A A62C G67C: the nonsense suppression was no more than 0.026. C11G G19C U20A U21A A23G C29U G88A: the nonsense suppression was no more than 0.026. In the case of C1A U16A G32A it was no more than 0.026; in that of C27A U76C, no more than 0.026; in that of A62G C68A, no more than 0.026. For the variant U17G G73C, the nonsense suppression was no more than 0.026. Turning to G59U C72A, the nonsense suppression was no more than 0.026. The figure for U16A U58A is no more than 0.026; for C27G C34G it is no more than 0.026; for A9G U55G G59C C75U C77A A87C it is no more than 0.026. Consider U2A A9G U16G G61A G86U, for which the nonsense suppression was no more than 0.026. The figure for C82G C83G is no more than 0.026; for U2C C5G A62C G69A it is no more than 0.026. A54U U76A G78U: the nonsense suppression was no more than 0.026. The figure for U71A G78A C79A is no more than 0.026; for U8G U55A G86A it is no more than 0.026; for A13U G61U G66C U70A it is no more than 0.026. In the case of C12U C34G it was no more than 0.026; in that of G18A C79A G86A, no more than 0.026; in that of C5G G6C A9C A89C, no more than 0.026. Take G25C A33C A89U: the nonsense suppression is no more than 0.026. In the case of A54C G59U it was no more than 0.026; in that of G25U G88U, no more than 0.026. On to C29A U70A G78C, for which the nonsense suppression is no more than 0.026. In the case of C3U U21G G85C it was 0.417; in that of A31U C56U, no more than 0.026.

As to G59U G84C, the nonsense suppression was no more than 0.026.

With G6C U70C U76C C80A, the nonsense suppression was no more than 0.026. The figure for A23G A24G C64A G69U C79U is no more than 0.026; for U57C U58G C79G it is no more than 0.026.

U35A G67A G86C: the nonsense suppression was no more than 0.026. In the case of A23G U55A it was no more than 0.026; in that of U4G U35G, no more than 0.026; in that of G28C G59A, no more than 0.026.

In the case of G7A C11A G25U A74C, the nonsense suppression was no more than 0.026. In the case of G15A C34A U71A C75G it was no more than 0.026; in that of A31C C79U, no more than 0.026; in that of U16A A30G U63A, no more than 0.026.

For the variant C12A G25A G26A, the nonsense suppression was no more than 0.026.

Regarding G25U G69C, the nonsense suppression was no more than 0.026. For C11U A13G G69C G73A, the nonsense suppression was no more than 0.026.

For G7A G15A U70C, the nonsense suppression is no more than 0.026. In the case of C11U C27U C29A A31U it was no more than 0.026; in that of A9U U21C C34U U35A U71C G73A, no more than 0.026.

With C11U U21A, the nonsense suppression was no more than 0.026. Consider G25U U57A C83A, for which the nonsense suppression is no more than 0.026. The figure for G6A G69C is no more than 0.026; for U20A C27U it is no more than 0.026; for G59A U76A it is no more than 0.026. In the case of C3A C5G U57C U70A it was no more than 0.026; in that of A33G G69C, no more than 0.026; in that of A14G G73C, no more than 0.026. Regarding C12G A14U A30G A31G A60G G78C, the nonsense suppression was no more than 0.026. The figure for C11A C29U A33U G85C is no more than 0.026; for A54G G69C A74G G86U it is no more than 0.026; for C12A G65A G84A it is no more than 0.026. Regarding A9G A14U A54U U55G G86U, the nonsense suppression is no more than 0.026. Turning to A9U C82G, the nonsense suppression is no more than 0.026. The figure for C3A U4A A14G G73A is no more than 0.026. As to A33U C80A, the nonsense suppression is no more than 0.026. In the case of A33U U76G G78A it was no more than 0.026. In the case of G6U G67C C68G it was no more than 0.026; in that of U17A A54C U58A, no more than 0.026; in that of U4G G19A A30C G88A, no more than 0.026.

Take U20A A31G: the nonsense suppression was 0.461. In the case of A13U G15U C64A G86C it was no more than 0.026; in that of G26C C72U C80G, no more than 0.026; in that of U70C G86A A87U, no more than 0.026. With U4G G25C U58A, the nonsense suppression is no more than 0.026. The figure for A24C C34G C72G is no more than 0.026; for U21G G25U G69C C80G it is no more than 0.026. Consider U2G A54U, for which the nonsense suppression was no more than 0.026.

For C1U U4A A23U G84A, the nonsense suppression was no more than 0.026.
